Drawing on the supplement of paper PMC8047034, this text covers log2 surviving fraction for 27 compounds.

For assay [1], the system named is OVCAR4. The experiment in a line: log2 surviving fraction (library drug vs vehicle, or drug + carboplatin vs carboplatin alone; relative to plate median); ovarian cancer lines: OVCAR4 is platinum-sensitive and Ov4Carbo platinum-resistant; higher = more cell survival. Conditions: library drug concentration 10 µM, 7 days.
Assay [2] has as its system Ov4Carbo. The description is as above. Particulars: library drug concentration 10 µM, 7 days.

SMILES strings stand for the structures. Where a name gives a salt, the structure may show the parent alone. The list shows a part of the results. Many values rest on one well or one pass, so single values are uncertain.

For the compound `c1ccc2c(c1)CCCC2C1=NCCN1` (stereo not drawn) [tetrahydrozoline hydrochloride], the log2 surviving fraction is 0.727 in assay [1] (carboplatin co-treatment 0 µM), 0.869 in assay [1] (carboplatin co-treatment 5 µM), 0.442 in assay [2] (carboplatin co-treatment 0 µM) and 0.178 in assay [2] (carboplatin co-treatment 5 µM).

Turning to `N[C@@H](CSCCCO)C(=O)O` [Fudosteine], the log2 surviving fraction in assay [1] (carboplatin co-treatment 0 µM) is -0.964; in assay [1] (carboplatin co-treatment 5 µM), -0.213; in assay [2] (carboplatin co-treatment 0 µM), -0.42; in assay [2] (carboplatin co-treatment 5 µM) it was -0.853.

For the compound `CN(C)c1ccc(C(=C2C=CC(=[N+](C)C)C=C2)c2ccc(N(C)C)cc2)cc1` [Crystal violet], the log2 surviving fraction in assay [1] (carboplatin co-treatment 0 µM) is -7.97; in assay [1] (carboplatin co-treatment 5 µM) it was -6.7; in assay [2] (carboplatin co-treatment 0 µM), -7.3; in assay [2] (carboplatin co-treatment 5 µM), -7.16.

Regarding `O=c1c(-c2ccc(O)cc2)coc2cc(O)ccc12` [Daidzein], the log2 surviving fraction stood at 0.271 in assay [1] (carboplatin co-treatment 0 µM), 0.00788 in assay [1] (carboplatin co-treatment 5 µM), 0.196 in assay [2] (carboplatin co-treatment 0 µM) and 0.0739 in assay [2] (carboplatin co-treatment 5 µM).

Turning to `COC(=O)N[C@H](C(=O)N[C@@H](Cc1ccccc1)[C@@H](O)CN(Cc1ccc(-c2ccccn2)cc1)NC(=O)[C@@H](NC(=O)OC)C(C)(C)C)C(C)(C)C` [Atazanavir sulfate], the log2 surviving fraction was -3.63 in assay [1] (carboplatin co-treatment 0 µM), -0.406 in assay [1] (carboplatin co-treatment 5 µM), -0.476 in assay [2] (carboplatin co-treatment 0 µM) and -1.09 in assay [2] (carboplatin co-treatment 5 µM).

As to `Nc1nc(=O)n([C@@H]2CS[C@H](CO)O2)cc1F` [Emtricitabine (Emtriva)], the log2 surviving fraction came to 0.42 in assay [1] (carboplatin co-treatment 0 µM), 0.692 in assay [1] (carboplatin co-treatment 5 µM), 0.76 in assay [2] (carboplatin co-treatment 0 µM) and 0.991 in assay [2] (carboplatin co-treatment 5 µM).

As for `COc1ccc(O)cc1` [Mequinol], the log2 surviving fraction is -1.01 in assay [1] (carboplatin co-treatment 0 µM), -1.24 in assay [1] (carboplatin co-treatment 5 µM), -0.152 in assay [2] (carboplatin co-treatment 0 µM) and -1.73 in assay [2] (carboplatin co-treatment 5 µM).

As for `NCCCC(O)(P(=O)(O)O)P(=O)(O)O` [Alendronate (Fosamax)], the log2 surviving fraction is -0.284 in assay [1] (carboplatin co-treatment 0 µM), 0.00338 in assay [1] (carboplatin co-treatment 5 µM), 0.695 in assay [2] (carboplatin co-treatment 0 µM) and -0.167 in assay [2] (carboplatin co-treatment 5 µM).

Take `CCCCNc1ccc(C(=O)OCCN(C)C)cc1` [Tetracaine hydrochloride (Pontocaine)]: the log2 surviving fraction in assay [1] (carboplatin co-treatment 0 µM) was found to be 0.248; in assay [1] (carboplatin co-treatment 5 µM) it was 0.234; in assay [2] (carboplatin co-treatment 0 µM) it was 1.52; in assay [2] (carboplatin co-treatment 5 µM), 0.381.

Consider `CC(=O)N1CCN(c2ccc(OCC3COC(Cn4ccnc4)(c4ccc(Cl)cc4Cl)O3)cc2)CC1` (stereo not drawn) [Ketoconazole], for which the log2 surviving fraction in assay [1] (carboplatin co-treatment 0 µM) is -0.506; in assay [1] (carboplatin co-treatment 5 µM), -1.55; in assay [2] (carboplatin co-treatment 0 µM), -2.87; in assay [2] (carboplatin co-treatment 5 µM), -0.341.

Regarding `Cc1ccccc1C(=O)Nc1ccc(C(=O)N2CCCC(O)c3cc(Cl)ccc32)c(C)c1` (stereo not drawn), the log2 surviving fraction in assay [1] (carboplatin co-treatment 0 µM) is -1.12; in assay [1] (carboplatin co-treatment 5 µM), 0.333; in assay [2] (carboplatin co-treatment 0 µM), -0.0247; in assay [2] (carboplatin co-treatment 5 µM), -0.0615.

Regarding `COc1ccc(CC(C)NCC(O)c2ccc(O)c(NC=O)c2)cc1` (stereo not drawn) [Formoterol hemifumarate], the log2 surviving fraction in assay [1] (carboplatin co-treatment 0 µM) was determined as 0.229; in assay [1] (carboplatin co-treatment 5 µM), 0.145; in assay [2] (carboplatin co-treatment 0 µM), 0.257; in assay [2] (carboplatin co-treatment 5 µM), 1.36.

For the compound `CCOC(=O)c1ccc(N)cc1` [Benzocaine], the log2 surviving fraction is 0.314 in assay [1] (carboplatin co-treatment 0 µM), 0.627 in assay [1] (carboplatin co-treatment 5 µM), -0.812 in assay [2] (carboplatin co-treatment 0 µM) and -0.358 in assay [2] (carboplatin co-treatment 5 µM).

With `Clc1cccc(Cl)c1NC1=NCCN1` [Clonidine hydrochloride (Catapres)], the log2 surviving fraction in assay [1] (carboplatin co-treatment 0 µM) came to 1.01; in assay [1] (carboplatin co-treatment 5 µM), 0.723; in assay [2] (carboplatin co-treatment 0 µM), 0.969; in assay [2] (carboplatin co-treatment 5 µM) it was 0.755.

Consider `COc1ccc2cc(CCC(C)=O)ccc2c1` [Nabumetone], for which the log2 surviving fraction is -0.00591 in assay [1] (carboplatin co-treatment 0 µM), 0.322 in assay [1] (carboplatin co-treatment 5 µM), -0.122 in assay [2] (carboplatin co-treatment 0 µM) and -0.00315 in assay [2] (carboplatin co-treatment 5 µM).

`C[N+](C)(C)CCCCCCCCCC[N+](C)(C)C` [Decamethonium bromide]: the log2 surviving fraction was 0.032 in assay [1] (carboplatin co-treatment 0 µM), 0.0217 in assay [1] (carboplatin co-treatment 5 µM), -0.494 in assay [2] (carboplatin co-treatment 0 µM) and -1.59 in assay [2] (carboplatin co-treatment 5 µM).

As to `CCN1CCN(C(=O)N[C@@H](C(=O)N[C@@H]2C(=O)N3[C@@H]2SC(C)(C)[C@@H]3C(=O)O)c2ccccc2)C(=O)C1=O` [Piperacillin Sodium], the log2 surviving fraction in assay [1] (carboplatin co-treatment 0 µM) amounted to 0.863; in assay [1] (carboplatin co-treatment 5 µM) it was 0.479; in assay [2] (carboplatin co-treatment 0 µM), 0.0701; in assay [2] (carboplatin co-treatment 5 µM) it was 1.18.

As to `CNC(=C[N+](=O)[O-])NCCSCc1csc(CN(C)C)n1` [Nizatidine], the log2 surviving fraction in assay [1] (carboplatin co-treatment 0 µM) is -0.000587; in assay [1] (carboplatin co-treatment 5 µM), -0.29; in assay [2] (carboplatin co-treatment 0 µM) it was 0.217; in assay [2] (carboplatin co-treatment 5 µM), -0.184.

`CN(CCOc1ccc(CC2SC(=O)NC2=O)cc1)c1ccccn1` (stereo not drawn) [Rosiglitazone HCl]: the log2 surviving fraction in assay [1] (carboplatin co-treatment 0 µM) came to 2.43; in assay [1] (carboplatin co-treatment 5 µM) it was 0.749; in assay [2] (carboplatin co-treatment 0 µM), 1.92; in assay [2] (carboplatin co-treatment 5 µM), 1.16.

Turning to `CC(COc1ccccc1)N(CCCl)Cc1ccccc1` (stereo not drawn) [Phenoxybenzamine HCl], the log2 surviving fraction is 0.271 in assay [1] (carboplatin co-treatment 0 µM), 0.242 in assay [1] (carboplatin co-treatment 5 µM), -0.0581 in assay [2] (carboplatin co-treatment 0 µM) and -0.168 in assay [2] (carboplatin co-treatment 5 µM).

As to `c1ccc2[nH]c(-c3cscn3)nc2c1` [Thiabendazole], the log2 surviving fraction was -1.81 in assay [1] (carboplatin co-treatment 0 µM), 0.393 in assay [1] (carboplatin co-treatment 5 µM), 0.416 in assay [2] (carboplatin co-treatment 0 µM) and 0.56 in assay [2] (carboplatin co-treatment 5 µM).

Turning to `N=C(N)NC(=N)N1CCOCC1` [Moroxydine], the log2 surviving fraction in assay [1] (carboplatin co-treatment 0 µM) is -0.059; in assay [1] (carboplatin co-treatment 5 µM), 0.853; in assay [2] (carboplatin co-treatment 0 µM), 0.601; in assay [2] (carboplatin co-treatment 5 µM), 0.317.

For the compound `Clc1ccc2c(c1)C(N1CCNCC1)=Nc1ccccc1O2` [Amoxapine], the log2 surviving fraction in assay [1] (carboplatin co-treatment 0 µM) is -0.549; in assay [1] (carboplatin co-treatment 5 µM) it was -0.515; in assay [2] (carboplatin co-treatment 0 µM), -2.36; in assay [2] (carboplatin co-treatment 5 µM), -2.59.

On to `O=C(O)c1cc(-c2ccccc2)nc2ccccc12` [Cinchophen], for which the log2 surviving fraction in assay [1] (carboplatin co-treatment 0 µM) is 0.29; in assay [1] (carboplatin co-treatment 5 µM) it was -0.288; in assay [2] (carboplatin co-treatment 0 µM), 0.485; in assay [2] (carboplatin co-treatment 5 µM), -0.613.

As to `CCc1ccc(CCOc2ccc(CC3SC(=O)NC3=O)cc2)nc1` (stereo not drawn) [Pioglitazone hydrochloride (Actos)], the log2 surviving fraction was 0.347 in assay [1] (carboplatin co-treatment 0 µM), -1.58 in assay [1] (carboplatin co-treatment 5 µM), 0.361 in assay [2] (carboplatin co-treatment 0 µM) and 0.793 in assay [2] (carboplatin co-treatment 5 µM).

In the case of `COCCc1ccc(OCC(O)CNC(C)C)cc1` (stereo not drawn) [Metoprolol tartrate], the log2 surviving fraction in assay [1] (carboplatin co-treatment 0 µM) was determined as 0.371; in assay [1] (carboplatin co-treatment 5 µM), 0.518; in assay [2] (carboplatin co-treatment 0 µM) it was 0.569; in assay [2] (carboplatin co-treatment 5 µM), 0.394.

Regarding `CCc1c(Cl)c(O)c(Cl)c(O)c1C(=O)O[C@H]1[C@H](O)[C@H](OC)[C@H](OC/C2=C\C=C\C[C@H](O)/C(C)=C/[C@H](CC)[C@@H](O[C@@H]3OC(C)(C)[C@@H](OC(=O)C(C)C)[C@H](O)[C@@H]3O)/C(C)=C/C(C)=C/C[C@@H]([C@@H](C)O)OC2=O)O[C@@H]1C` [Fidaxomicin], the log2 surviving fraction in assay [1] (carboplatin co-treatment 0 µM) is -0.197; in assay [1] (carboplatin co-treatment 5 µM), -0.592; in assay [2] (carboplatin co-treatment 0 µM), 0.283; in assay [2] (carboplatin co-treatment 5 µM), 0.0469.
